Test results reported in patent US20150274807A1 (SUZHOU ALPHAMAB, published 2015).

Tests used:
[1] = target: the molecule itself; assay: co-transfection 1:1 in 293H, protein A pull-down, non-reducing SDS-PAGE densitometry; co-expressed with Fc K392D/K409D/D399K
Procedure: (§1) The expression vectors harbor 8 mutation combinations in step 3 were separately transfected with PEI into suspension adapted 293H cells (ATCC CRL-1573), the co-transfection ratio of plasmids pcDNA3.1-zeo-ScFv-Fc to pcMVβ-SP-Fc was 1:1, and after 3-4 days, cell culture supernatant was collected. Immuno precipitation was performed with protein A agarose resin, and the content of the homodimer proteins or antibodies (ScFv-Fc/ScFv-Fc and Fc/Fc) and the heterodimer protein or antibody (ScFv-Fc/Fc) was detected by SDS-PAGE under non-reducing conditions. Gel-Pro professional image analysis software (Media Cybernetics company) was used for analyzing the proportion of the homodimer proteins or antibodies (ScFv-Fc/ScFv-Fc and Fc/Fc) and the heterodimer protein or antibody (ScFv-Fc/Fc). […] In addition, when E357K/K370E/K392D/K409D/D399K (mutation combination 4) was introduced on Fc, the stability should be further investigated because of the appearance of Fc monomers (about 6%).

[2] = target: T1, Fc protein E357K/K370E/K392D/K409D/D399K (human); assay: co-transfection 1:1 in 293H, protein A pull-down, non-reducing SDS-PAGE densitometry
T1 construct: Monomer chain; also called Fc-mix13; Fc of mutation combination 4
T1 chain: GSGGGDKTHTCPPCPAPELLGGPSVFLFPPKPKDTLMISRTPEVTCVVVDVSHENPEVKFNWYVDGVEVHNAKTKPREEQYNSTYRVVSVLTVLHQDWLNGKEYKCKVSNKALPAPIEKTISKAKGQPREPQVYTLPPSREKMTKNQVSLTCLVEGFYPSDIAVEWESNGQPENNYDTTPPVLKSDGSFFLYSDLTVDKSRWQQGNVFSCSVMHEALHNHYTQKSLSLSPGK
Procedure: as §1

proportion of ScFv-Fc/Fc heterodimer on SDS-PAGE [2]: 12.1%
B1: ScFv-Fc fusion protein, wild type (Fc fusion)
chain: EVQLLESGGGVVQPGRSLRLSCIASGFTFSSYPMTWVRQAPGKGLEWVASISYDGSYKYKADSMKGRLTISRDNSKNTLYLEMNSLTAEDTAVYYCARTAFFNAYDFWGQGTLVTVSSASTKGPSVGGGGSGGGGSEIVMTQSPATLSVSPGERATLSCRASQSVRSNLAWYQQKPGQAPRLLIYAASTRATGIPARFSGSGSGTEFTLTISSLQSEDFAVYYCQQYNEWFRTSGQGTKVEIKR[human IgG1 Fc with changes cut from this listing]
notes: the read-out is the pairing of two chains into a dimer; The Fc part is human IgG1; also called WT
proportion of ScFv-Fc homodimer on SDS-PAGE [1]: 44.5%
